PubChem BioAssay AID1745853 (National Center for Advancing Translational Sciences (NCATS), 2022)
Some of the results follow. Further columns of the screen follow, without active or inactive calls.

Tests used:
Assay in all cases: Primary Screen for Target Class Profiling of Small Molecule Inhibitors of Methyltransferases
[1] = target: Glycine N-methyltransferase (Homo sapiens) (UniProt Q14749); conditions: purified enzyme, MTase-Glo SAH luminescence; measured here: GNMT inhibition; at 40 µM; stronger effect = lower value
Method in brief: (§1)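 Each enzyme was reacted with SAM and its substrate, with compounds tested once at 40 uM; SAH formed was read by MTase-Glo luminescence.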

[2] = target: Guanidinoacetate N-methyltransferase (Homo sapiens) (UniProt Q14353); conditions: purified enzyme, MTase-Glo SAH luminescence; measured here: GAMT inhibition; at 40 µM; stronger effect = lower value
Method in brief: as §1

[3] = target: Histamine N-methyltransferase (Homo sapiens) (UniProt P50135); conditions: purified enzyme, MTase-Glo SAH luminescence; measured here: HNMT inhibition; at 40 µM; stronger effect = lower value
Method in brief: as §1

[4] = target: Nicotinamide N-methyltransferase (Homo sapiens) (UniProt P40261); conditions: purified enzyme, MTase-Glo SAH luminescence; measured here: NNMT inhibition; at 40 µM; stronger effect = lower value
Method in brief: as §1

[5] = target: Phenylethanolamine N-methyltransferase (Homo sapiens) (UniProt P11086); conditions: purified enzyme, MTase-Glo SAH luminescence; measured here: PNMT inhibition; at 40 µM; stronger effect = lower value
Method in brief: as §1
On the % scale 0 is the no-effect control and ±100 the full control effect.

| Structure (SMILES) | activity change, negative = inhibition [1] | activity change, negative = inhibition [2] | activity change, negative = inhibition [3] | activity change, negative = inhibition [4] | activity change, negative = inhibition [5] |
| --- | --- | --- | --- | --- | --- |
| Cn1cccc1C(=O)N1CC[C@H](NC(=O)Nc2ccc(F)cc2F)[C@H]1C(=O)N[C@H](Cc1ccccc1)C(N)=O | -4.47% | -3.65% | -0.614% | -7.03% | -3.46% |
| O=C(O)CC/C=C\C[C@H]1CO[C@@H](c2ccccc2Cl)O[C@H]1c1ccccc1O | -14.7% | -12.6% | 2.86% | -21.5% | -1.59% |
| O=C1N(Cc2ccccc2F)CCOC12CCN(Cc1ccc(F)cc1F)CC2 | -5.92% | -0.445% | -8.42% | -17.1% | -10% |
| Cc1ccc(CCNC(=O)Cn2ccc3cc(S(=O)(=O)N4CCC(C)CC4)ccc32)cc1 | 6.45% | 5.78% | 6.92% | 2.86% | 1.9% |
| O=C(O)CCc1cc2n(n1)CCCN(C(=O)c1cc3c([nH]c1=O)CCC3)C2 | -2.53% | -10.6% | -4.23% | -12.3% | -13.1% |
| O=c1[nH]cc(F)c(=O)[nH]1 | -1.86% | 5.73% | -1.83% | -2.3% | 4.96% |
| COCCNC(=O)c1ccc2c(c1)N(C)C(CC(=O)NCC(C)C)CO2 (stereo not given) | -0.748% | 0.223% | 2.41% | -0.452% | 4.25% |
| CCc1ccccc1NC(=O)c1cc2c(N3CCSCC3)nc(C)cn2n1 | -2.55% | 0.539% | -10.5% | -4.1% | 5.78% |
| COC(=O)c1cc2n(n1)CC(C)(C(=O)NC1CCCCC1)N(c1ccc(OC)cc1)C2=O (stereo not given) | 6.42% | 0% | 9.23% | 3.2% | 8.09% |
| Cc1ccn(-c2cc(Cl)ccc2[C@@H](Oc2cc(-c3ccc(C[C@H](N)C(=O)O)cc3)nc(N)n2)C(F)(F)F)n1 | -84% | -12.2% | 6.63% | -43.5% | -0.505% |
| CC1C2=CC(=O)OC2(O)CC2C1CCC1C(C)(C)CCC(O)C21C (stereo not given) | -6.18% | -5.92% | 7.29% | -21.9% | -13.7% |
| O=C(Nc1ccccc1C(F)(F)F)N1CCCC(Cn2cnc3cccnc32)C1 (stereo not given) | 0.722% | -1.18% | 3.31% | -4.32% | -14.5% |
| O=C1OC2(CCN(C(=O)c3ccco3)CC2)CN1CCOc1ccccc1 | -3.64% | -7.13% | -2.08% | -7.7% | -4.09% |
| COc1cc(N(C)CCN(C)C)c(N)cc1Nc1nccc(-c2cn(C)c3ccccc23)n1 | 1.16% | 4.26% | -34.1% | -13.1% | -5.65% |
| Cc1sc2c(c1C)C(c1ccc(Cl)cc1)=N[C@H](CC(=O)NCCCCNC(=O)COc1cccc3c1C(=O)N([C@H]1CCC(=O)NC1=O)C3=O)c1nnc(C)n1-2 | 0.357% | 14% | 1.89% | -69.2% | 2.7% |
| COc1cccc(-c2cccc(C(=O)N3CCN([S+](=O)([O-])c4ccc(C)cc4)CC3)c2)c1 | -6.28% | -6.71% | -4.85% | -10.8% | -4.84% |
| COc1ccccc1NS(=O)(=O)c1ccc2c(c1)n(C)c(=O)n2C | 0.456% | 7.13% | 6.21% | 7.51% | -1.63% |
| O=C(CCCc1nnc2n3nc(-c4ccccc4)nc3c3ccccc3n12)NCCc1ccccc1 | 0.026% | 4.72% | 5.12% | 5.34% | -0.174% |
| CN(C)c1nc(NC2CCC(NCCc3ccc(Br)cc3OC(F)(F)F)CC2)nc2ccccc12 (stereo not given) | -17% | 8.37% | -84.8% | -94.5% | -36.1% |
| COc1ccc(NC(=O)CSc2nnc3n(Cc4ccc(C)cc4)c(=O)c4ccccc4n23)cc1 | -0.49% | 0% | 9.04% | 3.7% | 5.91% |
| COc1ccc(-c2cc3n(n2)CC(C)(C(=O)NCc2ccccc2OC)N(c2ccc4c(c2)OCO4)C3=O)cc1 (stereo not given) | 3.36% | 0.909% | 2.36% | -4.19% | -3.69% |
| CN1C[C@H](NCc2nccs2)CCC[C@@H](C(=O)NC2CCOCC2)CC1=O | 2.97% | 1.51% | 2.77% | -0.025% | 2.09% |
| Cc1cc(-c2cc(C(=O)NCc3c(C)cc(C)[nH]c3=O)c3c(c2)ncn3C)ccn1 | -9.25% | -3.58% | -13.5% | -14.8% | -2.92% |
| Cc1ccccc1CNC(=O)Cn1ccc2cc(S(=O)(=O)N3CCCCC3)ccc21 | 0.894% | -0.665% | 4.59% | -2.33% | 0.277% |
| O=C(/C=C/c1ccc(O)cc1)OC[C@H]1O[C@@H](OC(=O)/C=C/c2ccccc2)[C@H](O)[C@@H](O)[C@@H]1O | 4.54% | 3.27% | 4.52% | -8.97% | 4.13% |
| CCCCCCCC/C=C\CCCCCCCC(=O)NCc1ccc(O)c(OC)c1 | -1.91% | 13.8% | 9.38% | -6.88% | 4.98% |
| CCOc1ccc(C2c3cccn3-c3sc4c(c3CN2C(=O)Nc2ccc(C)cc2)CCCC4)cc1 (stereo not given) | 2.68% | 0.284% | 6.18% | -2.73% | 6.41% |
| CC(C)NCC1(COc2ccccc2)C[C@@H](O)[C@@H](O)C1 (stereo not given in full) | -0.507% | -5.38% | -8.04% | -3.98% | 9.09% |
| N=c1ccn2c(n1)O[C@H]1[C@H](O)[C@@H](CO)O[C@H]12 | -6.51% | 1.73% | -3.58% | -7.34% | 1.9% |
